Assay results as given in the supplement of paper PMC8728848.
The list shows a part of the results.

How the values were obtained:
Test in all cases: glycan array binding signal (z-score within array); higher = stronger binding
Details in all cases: glycan notation: IUPAC condensed, linker removed
[1] = molecular target: Man(a1-2)Man(a1-3)[Man(a1-2)Man(a1-6)]Man
In short: (§1)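 The Consortium for Functional Glycomics database supplied 3228 glycan arrays, of which those lacking an available protein sequence were dropped. The binding signal, a within-array Z-score, was averaged across arrays of the same protein sequence and across linkers. Negative scores can be read as non-binding.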

[2] = molecular target: Man(a1-2)Man(a1-3)[Man(a1-2)Man(a1-6)]Man(a1-6)[Man(a1-2)Man(a1-2)Man(a1-3)]Man
In short: as §1

[3] = molecular target: Man(a1-2)Man(a1-3)[Man(a1-2)Man(a1-6)]Man(a1-6)[Man(a1-2)Man(a1-2)Man(a1-3)]Man(b1-4)GlcNAc(b1-4)GlcNAc
In short: as §1

[4] = molecular target: Man(a1-2)Man(a1-3)[Man(a1-6)]Man(a1-6)[Man(a1-2)Man(a1-3)]Man(b1-4)GlcNAc(b1-4)GlcNAc
In short: as §1

[5] = molecular target: Man(a1-2)Man(a1-6)[Man(a1-3)]Man(a1-6)[Man(a1-2)Man(a1-2)Man(a1-3)]Man
In short: as §1

[6] = molecular target: Man(a1-2)Man(a1-6)[Man(a1-3)]Man(a1-6)[Man(a1-2)Man(a1-2)Man(a1-3)]Man(b1-4)GlcNAc(b1-4)GlcNAc
In short: as §1

[7] = molecular target: Man(a1-3)[Man(a1-6)]Man
In short: as §1

[8] = molecular target: Man(a1-3)[Man(a1-6)]Man(a1-6)[Man(a1-2)Man(a1-3)]Man(b1-4)GlcNAc(b1-4)GlcNAc
In short: as §1

[9] = molecular target: Man(a1-3)[Man(a1-6)]Man(a1-6)[Man(a1-3)]Man
In short: as §1

[10] = molecular target: Man(a1-3)[Man(a1-6)]Man(a1-6)[Man(a1-3)]Man(b1-4)GlcNAc(b1-4)GlcNAc
In short: as §1

[11] = molecular target: Man(a1-3)[Man(a1-6)]Man(b1-4)GlcNAc(b1-4)GlcNAc
In short: as §1

[12] = molecular target: Man(a1-3)[Man(a1-6)]Man(b1-4)GlcNAc(b1-4)[Fuc(a1-6)]GlcNAc
In short: as §1

[13] = molecular target: Man(a1-6)Man
In short: as §1

[14] = molecular target: Man(b1-4)GlcNAc
In short: as §1

[15] = molecular target: MurNAc(b1-4)GlcNAc
In short: as §1

[16] = molecular target: Neu5Ac(a2-3)Gal
In short: as §1

[17] = molecular target: Neu5Ac(a2-3)Gal(b1-3)GalNAc
In short: as §1

[18] = molecular target: Neu5Ac(a2-3)Gal(b1-3)GalNAc(b1-3)Gal(a1-4)Gal(b1-4)Glc
In short: as §1

[19] = molecular target: Neu5Ac(a2-3)Gal(b1-3)GalNAc(b1-4)[Neu5Ac(a2-3)]Gal(b1-4)Glc
In short: as §1

[20] = molecular target: Neu5Ac(a2-3)Gal(b1-3)GalNAc(b1-4)[Neu5Ac(a2-8)Neu5Ac(a2-3)]Gal(b1-4)Glc
In short: as §1

[21] = molecular target: Neu5Ac(a2-3)Gal(b1-3)GalNAc6S
In short: as §1

[22] = molecular target: Neu5Ac(a2-3)Gal(b1-3)GlcNAc
In short: as §1

[23] = molecular target: Neu5Ac(a2-3)Gal(b1-3)GlcNAc(b1-2)Man
In short: as §1

[24] = molecular target: Neu5Ac(a2-3)Gal(b1-3)GlcNAc(b1-2)Man(a1-3)[GlcNAc(b1-4)][Neu5Ac(a2-3)Gal(b1-3)GlcNAc(b1-2)Man(a1-6)]Man(b1-4)GlcNAc(b1-4)GlcNAc
In short: as §1

[25] = molecular target: Neu5Ac(a2-3)Gal(b1-3)GlcNAc(b1-2)Man(a1-3)[Neu5Ac(a2-3)Gal(b1-3)GlcNAc(b1-2)Man(a1-6)]Man(b1-4)GlcNAc(b1-4)GlcNAc
In short: as §1

[26] = molecular target: Neu5Ac(a2-3)Gal(b1-3)GlcNAc(b1-3)Gal(b1-3)GlcNAc
In short: as §1

[27] = molecular target: Neu5Ac(a2-3)Gal(b1-3)GlcNAc(b1-3)Gal(b1-4)GlcNAc
In short: as §1

[28] = molecular target: Neu5Ac(a2-3)Gal(b1-3)GlcNAc(b1-3)GalNAc
In short: as §1

[29] = molecular target: Neu5Ac(a2-3)Gal(b1-3)GlcNAc(b1-4)Gal(b1-4)Glc
In short: as §1

[30] = molecular target: Neu5Ac(a2-3)Gal(b1-3)GlcNAc(b1-6)GalNAc
In short: as §1

[31] = molecular target: Neu5Ac(a2-3)Gal(b1-3)GlcNAc6S
In short: as §1

[32] = molecular target: Neu5Ac(a2-3)Gal(b1-3)[Fuc(a1-4)]GlcNAc
In short: as §1

[33] = molecular target: Neu5Ac(a2-3)Gal(b1-3)[Fuc(a1-4)]GlcNAc(b1-3)Gal(b1-3)[Fuc(a1-4)]GlcNAc
In short: as §1

[34] = molecular target: Neu5Ac(a2-3)Gal(b1-3)[Fuc(a1-4)]GlcNAc(b1-3)Gal(b1-4)[Fuc(a1-3)]GlcNAc
In short: as §1

[35] = molecular target: Neu5Ac(a2-3)Gal(b1-3)[GlcNAc(b1-6)]GalNAc
In short: as §1

[36] = molecular target: Neu5Ac(a2-3)Gal(b1-3)[Neu5Ac(a2-6)]GalNAc
In short: as §1

[37] = molecular target: Neu5Ac(a2-3)Gal(b1-3)[Neu5Ac(a2-6)]GlcNAc(b1-3)[Fuc(a1-3)[Gal(b1-4)]GlcNAc(b1-6)]Gal(b1-4)Glc
In short: as §1

[38] = molecular target: Neu5Ac(a2-3)Gal(b1-3)]Neu5Ac(a2-3)Gal(b1-4)]GlcNAc
In short: as §1

[39] = molecular target: Neu5Ac(a2-3)Gal(b1-4)Glc
In short: as §1

[40] = molecular target: Neu5Ac(a2-3)Gal(b1-4)GlcNAc
In short: as §1

[41] = molecular target: Neu5Ac(a2-3)Gal(b1-4)GlcNAc(b1-2)Man
In short: as §1

[42] = molecular target: Neu5Ac(a2-3)Gal(b1-4)GlcNAc(b1-2)Man(a1-3)[GlcNAc(b1-4)][Neu5Ac(a2-3)Gal(b1-4)GlcNAc(b1-2)Man(a1-6)]Man(b1-4)GlcNAc(b1-4)GlcNAc
In short: as §1

[43] = molecular target: Neu5Ac(a2-3)Gal(b1-4)GlcNAc(b1-2)Man(a1-3)[Neu5Ac(a2-3)Gal(b1-4)GlcNAc(b1-2)Man(a1-6)]Man(b1-4)GlcNAc(b1-4)GlcNAc
In short: as §1

[44] = molecular target: Neu5Ac(a2-3)Gal(b1-4)GlcNAc(b1-2)Man(a1-3)[Neu5Ac(a2-3)Gal(b1-4)GlcNAc(b1-2)Man(a1-6)]Man(b1-4)GlcNAc(b1-4)[Fuc(a1-6)]GlcNAc
In short: as §1

[45] = molecular target: Neu5Ac(a2-3)Gal(b1-4)GlcNAc(b1-2)Man(a1-3)[Neu5Ac(a2-6)Gal(b1-4)GlcNAc(b1-2)Man(a1-6)]Man(b1-4)GlcNAc(b1-4)GlcNAc
In short: as §1

B1: CpGal16 (Clavelina picta) (protein)
chain: MAKMITNYVGKRIECIMVATDMMSTVFSLASATGDLPFYINFRQRENSIVMNTRVHGKWQYEKSQSSGGMNFYEPFRLVVEVRPSVFKVTVSTMGEEDGITFNLQYSQITIKPDEIVAMHLGYCNLRSELLVTDL
glycan array binding signal (z-score) [1]: -0.419 | glycan array binding signal (z-score) [2]: -0.232 | glycan array binding signal (z-score) [3]: -0.3 | glycan array binding signal (z-score) [4]: -0.318 | glycan array binding signal (z-score) [5]: -0.341 | glycan array binding signal (z-score) [6]: -0.331 | glycan array binding signal (z-score) [7]: -0.366 | glycan array binding signal (z-score) [8]: -0.328 | glycan array binding signal (z-score) [9]: -0.43 | glycan array binding signal (z-score) [10]: -0.388 | glycan array binding signal (z-score) [11]: -0.477 | glycan array binding signal (z-score) [12]: -0.308 | glycan array binding signal (z-score) [13]: -0.17 | glycan array binding signal (z-score) [14]: -0.449 | glycan array binding signal (z-score) [15]: -0.34 | glycan array binding signal (z-score) [16]: -0.234 | glycan array binding signal (z-score) [17]: -0.425 | glycan array binding signal (z-score) [18]: -0.317 | glycan array binding signal (z-score) [19]: -0.411 | glycan array binding signal (z-score) [20]: -0.405 | glycan array binding signal (z-score) [21]: -0.352 | glycan array binding signal (z-score) [22]: -0.409 | glycan array binding signal (z-score) [23]: -0.384 | glycan array binding signal (z-score) [24]: -0.246 | glycan array binding signal (z-score) [25]: -0.338 | glycan array binding signal (z-score) [26]: -0.378 | glycan array binding signal (z-score) [27]: -0.42 | glycan array binding signal (z-score) [28]: -0.327 | glycan array binding signal (z-score) [29]: -0.455 | glycan array binding signal (z-score) [30]: -0.383 | glycan array binding signal (z-score) [31]: -0.322 | glycan array binding signal (z-score) [32]: -0.375 | glycan array binding signal (z-score) [33]: -0.467 | glycan array binding signal (z-score) [34]: -0.273 | glycan array binding signal (z-score) [35]: -0.388 | glycan array binding signal (z-score) [36]: -0.303 | glycan array binding signal (z-score) [37]: -0.357 | glycan array binding signal (z-score) [38]: -0.418 | glycan array binding signal (z-score) [39]: -0.205 | glycan array binding signal (z-score) [40]: -0.378 | glycan array binding signal (z-score) [41]: 0.081 | glycan array binding signal (z-score) [42]: -0.472 | glycan array binding signal (z-score) [43]: -0.342 | glycan array binding signal (z-score) [44]: -0.245 | glycan array binding signal (z-score) [45]: -0.368
